Paper PMC4336329 (PLoS ONE, 2015)
The whole screen tested about 310,000 compounds, of which about 14,000 (4.5%) showed an effect of 50% or more. The effect is printed as a negative number. The list shows a part of the results.

Target: human ether-à-go-go-related gene (hERG) potassium channel (human, UniProt Q12809)
Assay: primary screen, population patch clamp on CHO cells stably expressing hERG
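Note: peak tail current of the secondary pulse compared with the same well before compound.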

human ether-à-go-go-related gene (hERG) potassium channel, sequence (Q12809 whole entry, looked up): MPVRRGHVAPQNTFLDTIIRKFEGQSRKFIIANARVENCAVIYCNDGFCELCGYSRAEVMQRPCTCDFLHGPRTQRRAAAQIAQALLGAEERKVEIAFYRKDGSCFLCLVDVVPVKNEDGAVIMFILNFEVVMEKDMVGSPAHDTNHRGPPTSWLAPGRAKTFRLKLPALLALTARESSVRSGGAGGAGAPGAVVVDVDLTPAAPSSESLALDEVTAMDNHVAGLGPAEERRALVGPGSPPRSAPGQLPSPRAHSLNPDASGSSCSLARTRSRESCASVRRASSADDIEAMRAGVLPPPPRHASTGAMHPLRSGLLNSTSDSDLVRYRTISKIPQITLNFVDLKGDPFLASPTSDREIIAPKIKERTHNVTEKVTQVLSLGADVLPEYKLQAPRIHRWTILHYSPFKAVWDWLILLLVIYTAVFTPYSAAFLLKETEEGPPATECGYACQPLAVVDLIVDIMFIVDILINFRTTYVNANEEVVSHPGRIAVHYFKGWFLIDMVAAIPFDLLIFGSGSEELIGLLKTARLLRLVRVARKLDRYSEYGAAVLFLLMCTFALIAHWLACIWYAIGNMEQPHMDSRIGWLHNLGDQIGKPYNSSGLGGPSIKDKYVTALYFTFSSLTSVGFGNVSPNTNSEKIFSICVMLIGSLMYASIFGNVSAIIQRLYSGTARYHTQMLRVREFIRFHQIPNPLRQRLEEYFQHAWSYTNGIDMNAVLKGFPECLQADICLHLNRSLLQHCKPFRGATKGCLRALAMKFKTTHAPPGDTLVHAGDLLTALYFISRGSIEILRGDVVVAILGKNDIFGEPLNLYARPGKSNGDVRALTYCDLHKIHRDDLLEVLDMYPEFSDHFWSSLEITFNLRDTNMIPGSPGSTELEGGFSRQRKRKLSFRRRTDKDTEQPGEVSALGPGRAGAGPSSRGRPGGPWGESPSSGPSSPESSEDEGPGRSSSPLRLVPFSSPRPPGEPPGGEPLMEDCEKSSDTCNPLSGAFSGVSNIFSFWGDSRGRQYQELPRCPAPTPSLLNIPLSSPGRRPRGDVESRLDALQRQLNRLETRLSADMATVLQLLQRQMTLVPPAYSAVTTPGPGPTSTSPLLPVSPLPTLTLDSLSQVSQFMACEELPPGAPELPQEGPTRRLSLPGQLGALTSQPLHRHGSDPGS

Point of comparison: `COc1ccc(NC2=NCCCS2)cc1OC`, “hERG current change (%, negative = inhibition) at 10uM” value 10.3%. Against it:
- COc1ccc(N2CC(O)=C(c3nc(-c4ccc(Cl)cc4)cs3)C2=N)cc1 — higher, 36.1%
- O=C(Cn1cc(Cl)c([N+](=O)[O-])n1)NCCC1=CCCCC1 — higher, 12.1%
- COc1ccc(S(=O)(=O)N2CCC(C(=O)NCCN3CCOCC3)CC2)cc1 — higher, 14.2%
- CC(C)CNC(=O)C1CCN(S(=O)(=O)c2ccc(-n3cnnn3)cc2)CC1 — lower, -55.3%
- CNC(=O)C1CC(=O)N(CCc2ccccc2)C(=Nc2ccc(OC)cc2)S1 (centres unmarked) — higher, 12.1%
- CCOC(=O)N1CCN(S(=O)(=O)c2cc(OCC)ccc2OCC)CC1 — lower, 3.88%
- O=c1[nH]ncc(N/N=C\c2ccncc2)c1Cl — higher, 18.1%
- Cn1c(=O)c(=O)n(C)c2cc(S(=O)(=O)N3CC(=O)N(CCc4ccccc4)C(=O)C3)ccc21 — higher, 19.4%
- Nc1nonc1-n1nnc(C(=O)N/N=C/c2ccc(OCc3ccccc3)cc2)c1CN1CCCCC1 — lower, 7.17%
- CCCC(=O)NCCc1nc2cc([N+](=O)[O-])ccc2n1C — lower, -16.4%
- CCc1cc2cc3c(cc2nc1SCC(=O)OC(C)C)OCO3 — lower, -6.18%
- NC(=O)c1cnn2c(C(F)(F)F)cc(-c3ccccc3)nc12 — lower, -22.2%
- O=C(c1ccc([N+](=O)[O-])cc1Cl)N1CCN(c2ccccn2)CC1 — lower, -45%
- O=C(N1CCOCC1)n1cnc2ccccc21 — higher, 22.5%
- CCOC(=O)Nc1ccc2c(c1)N(C(=O)CCN1CCN3CCCC3C1)c1ccccc1CC2.Cl.O (centres unmarked) — higher, 10.7%
- COc1cccc(NP(=O)(Oc2ccc(Cl)cc2)Oc2ccc(Cl)cc2)c1 — lower, -9.06%
- Cc1n[nH]c(C)c1CCCCOc1ccccc1F — lower, 1.05%
- CC(C)(C)OC(=O)NCCC(=O)N/N=C/c1cccc2nccnc12 — lower, 8.03%
- COc1ccc(C(=O)COC(=O)CN2CC(=O)Oc3ccccc32)cc1Br — lower, 9.4%
- O=C(CN1C(=O)c2ccccc2C1=O)Nc1cccc2cccnc12 — lower, 6.19%
- Cc1ccc(NC(=O)CN(C)S(=O)(=O)c2cccc3nsnc23)cc1 — lower, -26.7%
- CC(CCc1ccccc1)NC(=O)CN1CCOc2ccccc21 (centres unmarked) — lower, -12.3%
- COC(=O)CCN(C(=O)c1ccc([N+](=O)[O-])cc1)c1ccccn1 — lower, 9.7%
- CCOC(=O)N1CCN(c2ccc(C(=O)c3ccccc3)cc2F)CC1 — lower, -50.8%
- CCc1cc(Cn2nc(-c3ccccc3)cc2C(=O)NCc2cccc(C(F)(F)F)c2)on1 — lower, 6.81%
- CC(OC(=O)/C=C/c1cccs1)C(=O)Nc1ccc(S(N)(=O)=O)cc1 (centres unmarked) — lower, 1.47%
- Cc1nc2ccccn2c1C(=O)NN — lower, 9.06%
- CC(=O)N1CCc2c(sc(NC(=O)CCS(=O)(=O)c3ccc(C)cc3)c2C(N)=O)C1 — lower, 2.54%
- O=C1OC2(c3ccccc3)C3CCCC2C13 — higher, 11.1%
- COCc1cc(C)nc(SCC[N+](C)(C)CC(=O)c2ccc(Br)cc2)c1C#N.[Br-] — lower, -1.5%
- Br.Cn1c(=N)n(CC(=O)c2ccc(Br)cc2)c2ccccc21 — lower, -41%
- O=C1OC(c2ccccc2)=N/C1=C\N1CCCCC1 — lower, -1.32%
- CNc1ccc(/C=C2\COc3ccccc3C2=O)cc1[N+](=O)[O-] — higher, 11.1%
- c1ccc(C(NCCNC(c2ccccc2)c2ccccc2)c2ccccc2)cc1 — lower, 8.38%
- CCn1c(SCC(=O)Nc2ccc(Cl)cc2)nnc1C1CC1 — lower, -29.8%
- Cc1ccc(C(=O)NCc2ccc3c(c2)OCO3)o1 — higher, 14.5%
- Cc1ccc(S(=O)(=O)N(C)CC(=O)Nc2cccc(C)n2)cc1 — higher, 15.2%
- COC(=O)c1ccccc1S(=O)(=O)N1CCCC(c2nc3c(nnn3Cc3ccc(C)cc3)c(=O)[nH]2)C1 (centres unmarked) — lower, -20.5%
- COc1cccc(-c2nc(CS(=O)(=O)CC(=O)Nc3cc(C)ccc3C)c(C)o2)c1 — lower, 7.02%
- COc1cc(C(=O)NCCCc2ccccc2)cc(OC)c1OC — lower, 8.24%
- O=C(Nc1ccc(C(F)(F)F)cc1[N+](=O)[O-])O[C@H]1[C@H](Cc2ccccc2)NS(=O)(=O)[C@H]2C[C@@H]3C=C[C@]12O3 — lower, 9.28%
- CSCC(=O)N1CCCC(CO)(CCCc2ccccc2)C1 (centres unmarked) — lower, -4.78%
- O=S(=O)(Nc1cccc2cn[nH]c12)c1ccc(F)cc1 — lower, -5.83%
- CCn1c(CNC(=O)c2ccccc2F)nnc1SCC(=O)NC1CCCCC1C (centres unmarked) — higher, 31.8%
- CC(=O)Oc1c(C)c(OC(C)=O)c2c(c1C(C)=O)OC1CC(=O)C(C(C)=O)=C(O)C21C (centres unmarked) — lower, 5.99%
- O=C(O/N=C(/c1ccccc1)c1ccncc1)c1ccccc1[N+](=O)[O-] — lower, -14%
- Cc1ccc2oc(C(=O)N3CCN(CC(=O)NC(C)C)CC3)c(C)c2c1 — lower, -29.6%
- N#Cc1c2c(c(=S)n(-c3ccccc3)c1N)CCCC2 — lower, 5.08%
- COc1ccc(C2=NO[C@@H]3C(=O)N(c4ccc5c(c4)OCCO5)C(=O)[C@H]23)cc1OC — lower, -1.41%
- O=C(CCNC(=O)c1ccc(Cl)cc1)Nc1cccc(S(=O)(=O)N2CCCCC2)c1 — lower, -46%
- CC1CC=C2C(C#N)=C(N)C(C#N)(C#N)C(c3cccs3)C2C1 (centres unmarked) — lower, -3.93%
- COCCOc1ccc(C(F)(F)F)cc1N — higher, 26.3%
- CS(=O)(=O)N1CCN(c2ccccc2NC(=O)c2ccc(Br)o2)CC1 — lower, -36.3%
- COC(=O)C1=C(C)N=C2SC(C#N)=C(N)N2C1c1ccc(OC)cc1 (centres unmarked) — lower, -16.9%
- Cc1occc1C(=O)N1CCN(C(c2ccccc2)c2ccccc2)CC1 — lower, -16.8%
- N#CCSCC(=O)Nc1ccc(Cl)cc1 — lower, 6.07%
- O=C(N/N=C\c1cccnc1)c1ccc(Br)s1 — lower, -6.65%
- Cc1nnc(SCc2nc3sc4c(c3c(=O)[nH]2)CCCC4)[nH]c1=O — higher, 13%
- Cc1cc(C)c(C)c(OCC(=O)O/N=C(\N)c2ccccn2)c1 — lower, -1.24%
- C/C(=N\Nc1ccccc1C(=O)O)c1ccncc1 — lower, 0.449%
- C#CCSc1nnc(-c2ccc(O)cc2)o1 — lower, 9.73%
- CC(=O)c1cccc(NC(=O)c2cnn(-c3ccccc3)c2C)c1 — lower, -10.5%
- CCC(=O)/C(=C(/O)c1ccccc1)c1nc2ccccc2[nH]1 — higher, 42.1%
- O=C(/C(Br)=C/Nc1cc(Cl)ccc1Cl)C(F)(F)F — lower, -35.3%
- CC(C)n1c(=S)[nH]c2cc(Cl)ccc21 — higher, 16.9%
- OC(CSc1ccccc1Cl)CN1CCN(c2ccc(F)cc2)CC1 (centres unmarked) — lower, -57.4%
- Cc1ccc(C(=O)O)cc1S(=O)(=O)N1CCC(C(=O)O)CC1 — lower, -4.77%
- COc1cc(C(c2nnnn2C2CCCC2)N2CCc3ccccc3C2)ccc1O.Cl (centres unmarked) — lower, -20.7%
- O=C(NCc1ccncc1)c1cccc(S(=O)(=O)Nc2ccc(SC(F)F)cc2)c1 — lower, -3.21%
- COc1ccccc1CCNC(=O)C(=O)NCC1OCCN1S(=O)(=O)c1ccc(F)cc1 (centres unmarked) — lower, -5.58%
- COc1ccc2nc(NC(=S)N(C)C)sc2c1 — higher, 21.2%
- Cc1ccc2oc(=O)n(CCOc3ccccc3C)c2c1 — lower, 9.56%
- CCn1cc(C(=O)NCCCN2CCC(C)CC2)c(=O)c2cc(S(=O)(=O)N3CCCC3)ccc21 — lower, -7.61%
- Cc1ccc(CN2CCN(Cc3ccccn3)CC2CCO)cc1 (centres unmarked) — lower, -47.9%
- CCN1CCN(S(=O)(=O)c2ccc(Cl)c(C(=O)NC3CCCC3)c2)CC1 — lower, 5.28%
- COc1ccc(Cl)cc1C(=O)NNC(=O)c1csc(N2CCOCC2)n1 — lower, 9.47%
- O=C1/C(=C/c2ccco2)Cc2ccccc21 — lower, -2.94%
- O=C(CCCn1cnc([N+](=O)[O-])n1)Nc1cccc(O)c1 — lower, 9.95%
- O=C(Nc1ccc2c(c1)OCCO2)C1CC1c1ccccc1 (centres unmarked) — lower, 9.64%
- CSCCC(NC(=O)C1CCC(C)CC1)C(=O)NCCN1CCC(C)CC1 (centres unmarked) — lower, -19.9%
- CC(C)(C)c1cnnn1-c1ccc(-c2csc(N)n2)cc1 — lower, -3.16%
- CC(C)c1ccc(CN2CC(C(=O)Nc3ccccc3)CC2=O)cc1 (centres unmarked) — lower, -8.95%
- CS(=O)(=O)O.CSc1ccc2c(c1)C(N1CCN(C)CC1)Cc1ccccc1S2 (centres unmarked) — lower, -65.9%
- CCCc1cc(C(=O)Nc2nnc(C)s2)cs1 — lower, 4.22%
- CCCCCCCCc1nnc(NC(=O)c2ccco2)s1 — higher, 12.3%
- COc1ccc(C(C)=O)cc1COC(=O)CSC(C)C(=O)Nc1cc(C)on1 (centres unmarked) — lower, 0.0735%
- Cc1ccc2nc(-c3ccc(NC(=O)CSc4nccc(=O)[nH]4)cc3)sc2c1 — higher, 16.2%
- O=C(N/C(=C\c1cccc(Br)c1)C(=O)N1CCOCC1)c1ccco1 — lower, 2.03%
